From the supplement of paper PMC11876631 come the findings set out here.

± gives the standard deviation of the averaged measurements. Laboratory Escherichia coli strains with one amino-acid change in an essential protein, pooled on minimal glucose agar with carbenicillin or gentamicin at twice the control MIC (plus kanamycin and chloramphenicol for the plasmids), 48 h. Fold change of barcode share against drug-free plates; higher = less susceptible. Active = above 20 in both replicates (the paper's putatively resistant). '<' = one read or none on drug, '>' = one read or none on a drug-free plate. Shares are relative, so most strains fall below 1 when a few take over. Listed are strains with at least 15 reads on both drug-free plates, and hits; most hits rest on fewer reference reads. Replicate rank correlation about 0.5. Edits are read from barcodes. Where only a bound is given, the exact number is not on record here.

This series concerns the target Escherichia coli (laboratory strain). Briefly: barcode share on antibiotic plates over drug-free plates; higher = less susceptible. As to the method: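 A pool of E. coli strains, each edited to carry one amino-acid change in an essential protein, was grown for 48 h on minimal glucose agar with or without antibiotic; strain barcodes were sequenced; mean of two replicates.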

Setting [1] is: antibiotic: carbenicillin, 2× MIC (3.1 µg/mL).
Setting [2] is: antibiotic: gentamicin, 2× MIC (MIC 0.45 µg/mL).

B1: tsaD L134Q (protein)
chain: MRVLGIETSCDETGIAIYDDEKGLLANQLYSQVKLHADYGGVVPELASRDHVRKTVPLIQAALKESGLTAKDIDAVAYTAGPGLVGALLVGATVGRSLAFAWDVPAIPVHHMEGHLLAPMLEDNPPEFPFVALQVSGGHTQLISVTGIGQYELLGESIDDAAGEAFDKTAKLLGLDYPGGPLLSKMAAQGTAGRFVFPRPMTDRPGLDFSFSGLKTFAANTIRDNGTDDQTRADIARAFEDAVVDTLMIKCKRALDQTGFKRLVMAGGVSANRTLRAKLAEMMKKRRGEVFYARPEFCTDNGAMIAYAGMVRFKAGATADLGVSVRPRWPLAELPAA
B1: the “fold change of barcode share” value reads like this: under setting [1], 0.213 ± 0.082; under setting [2], 0.00352 ± 0.0012.

B2: tsaD M265Q (protein)
chain: MRVLGIETSCDETGIAIYDDEKGLLANQLYSQVKLHADYGGVVPELASRDHVRKTVPLIQAALKESGLTAKDIDAVAYTAGPGLVGALLVGATVGRSLAFAWDVPAIPVHHMEGHLLAPMLEDNPPEFPFVALLVSGGHTQLISVTGIGQYELLGESIDDAAGEAFDKTAKLLGLDYPGGPLLSKMAAQGTAGRFVFPRPMTDRPGLDFSFSGLKTFAANTIRDNGTDDQTRADIARAFEDAVVDTLMIKCKRALDQTGFKRLVQAGGVSANRTLRAKLAEMMKKRRGEVFYARPEFCTDNGAMIAYAGMVRFKAGATADLGVSVRPRWPLAELPAA
On to B2, for which the “fold change of barcode share” value by setting is: under setting [1], 0.27 ± 0.09; under setting [2], 0.00525 ± 0.0018.

B3: tsaD I305D (protein)
chain: MRVLGIETSCDETGIAIYDDEKGLLANQLYSQVKLHADYGGVVPELASRDHVRKTVPLIQAALKESGLTAKDIDAVAYTAGPGLVGALLVGATVGRSLAFAWDVPAIPVHHMEGHLLAPMLEDNPPEFPFVALLVSGGHTQLISVTGIGQYELLGESIDDAAGEAFDKTAKLLGLDYPGGPLLSKMAAQGTAGRFVFPRPMTDRPGLDFSFSGLKTFAANTIRDNGTDDQTRADIARAFEDAVVDTLMIKCKRALDQTGFKRLVMAGGVSANRTLRAKLAEMMKKRRGEVFYARPEFCTDNGAMDAYAGMVRFKAGATADLGVSVRPRWPLAELPAA
Consider B3, for which the “fold change of barcode share” value stood at 0.485 ± 0.11 under setting [1] and 0.0124 ± 0.008 under setting [2].

B4: tsaD L134P (protein)
chain: MRVLGIETSCDETGIAIYDDEKGLLANQLYSQVKLHADYGGVVPELASRDHVRKTVPLIQAALKESGLTAKDIDAVAYTAGPGLVGALLVGATVGRSLAFAWDVPAIPVHHMEGHLLAPMLEDNPPEFPFVALPVSGGHTQLISVTGIGQYELLGESIDDAAGEAFDKTAKLLGLDYPGGPLLSKMAAQGTAGRFVFPRPMTDRPGLDFSFSGLKTFAANTIRDNGTDDQTRADIARAFEDAVVDTLMIKCKRALDQTGFKRLVMAGGVSANRTLRAKLAEMMKKRRGEVFYARPEFCTDNGAMIAYAGMVRFKAGATADLGVSVRPRWPLAELPAA
Regarding B4, the “fold change of barcode share” value is 0.422 ± 0.25 under setting [1] and less than 0.00389 under setting [2].

B5: tsaD I305P (protein)
chain: MRVLGIETSCDETGIAIYDDEKGLLANQLYSQVKLHADYGGVVPELASRDHVRKTVPLIQAALKESGLTAKDIDAVAYTAGPGLVGALLVGATVGRSLAFAWDVPAIPVHHMEGHLLAPMLEDNPPEFPFVALLVSGGHTQLISVTGIGQYELLGESIDDAAGEAFDKTAKLLGLDYPGGPLLSKMAAQGTAGRFVFPRPMTDRPGLDFSFSGLKTFAANTIRDNGTDDQTRADIARAFEDAVVDTLMIKCKRALDQTGFKRLVMAGGVSANRTLRAKLAEMMKKRRGEVFYARPEFCTDNGAMPAYAGMVRFKAGATADLGVSVRPRWPLAELPAA
For B5, the “fold change of barcode share” value runs as follows: under setting [1], 0.228 ± 0.12; under setting [2], 0.00909 ± 0.0038.

B6: tsaD I305W (protein)
chain: MRVLGIETSCDETGIAIYDDEKGLLANQLYSQVKLHADYGGVVPELASRDHVRKTVPLIQAALKESGLTAKDIDAVAYTAGPGLVGALLVGATVGRSLAFAWDVPAIPVHHMEGHLLAPMLEDNPPEFPFVALLVSGGHTQLISVTGIGQYELLGESIDDAAGEAFDKTAKLLGLDYPGGPLLSKMAAQGTAGRFVFPRPMTDRPGLDFSFSGLKTFAANTIRDNGTDDQTRADIARAFEDAVVDTLMIKCKRALDQTGFKRLVMAGGVSANRTLRAKLAEMMKKRRGEVFYARPEFCTDNGAMWAYAGMVRFKAGATADLGVSVRPRWPLAELPAA
Turning to B6, the “fold change of barcode share” value is 0.186 ± 0.092 under setting [1] and less than 0.0129 under setting [2].

B7: tsaD M265A (protein)
chain: MRVLGIETSCDETGIAIYDDEKGLLANQLYSQVKLHADYGGVVPELASRDHVRKTVPLIQAALKESGLTAKDIDAVAYTAGPGLVGALLVGATVGRSLAFAWDVPAIPVHHMEGHLLAPMLEDNPPEFPFVALLVSGGHTQLISVTGIGQYELLGESIDDAAGEAFDKTAKLLGLDYPGGPLLSKMAAQGTAGRFVFPRPMTDRPGLDFSFSGLKTFAANTIRDNGTDDQTRADIARAFEDAVVDTLMIKCKRALDQTGFKRLVAAGGVSANRTLRAKLAEMMKKRRGEVFYARPEFCTDNGAMIAYAGMVRFKAGATADLGVSVRPRWPLAELPAA
For the protein B7, the “fold change of barcode share” value is 0.237 ± 0.042 under setting [1] and less than 0.00241 under setting [2].

B8: tsaD I305A (protein)
chain: MRVLGIETSCDETGIAIYDDEKGLLANQLYSQVKLHADYGGVVPELASRDHVRKTVPLIQAALKESGLTAKDIDAVAYTAGPGLVGALLVGATVGRSLAFAWDVPAIPVHHMEGHLLAPMLEDNPPEFPFVALLVSGGHTQLISVTGIGQYELLGESIDDAAGEAFDKTAKLLGLDYPGGPLLSKMAAQGTAGRFVFPRPMTDRPGLDFSFSGLKTFAANTIRDNGTDDQTRADIARAFEDAVVDTLMIKCKRALDQTGFKRLVMAGGVSANRTLRAKLAEMMKKRRGEVFYARPEFCTDNGAMAAYAGMVRFKAGATADLGVSVRPRWPLAELPAA
For B8, the “fold change of barcode share” value by setting is: under setting [1], 0.329 ± 0.046; under setting [2], less than 0.00782.

B9: tsaD I305Q (protein)
chain: MRVLGIETSCDETGIAIYDDEKGLLANQLYSQVKLHADYGGVVPELASRDHVRKTVPLIQAALKESGLTAKDIDAVAYTAGPGLVGALLVGATVGRSLAFAWDVPAIPVHHMEGHLLAPMLEDNPPEFPFVALLVSGGHTQLISVTGIGQYELLGESIDDAAGEAFDKTAKLLGLDYPGGPLLSKMAAQGTAGRFVFPRPMTDRPGLDFSFSGLKTFAANTIRDNGTDDQTRADIARAFEDAVVDTLMIKCKRALDQTGFKRLVMAGGVSANRTLRAKLAEMMKKRRGEVFYARPEFCTDNGAMQAYAGMVRFKAGATADLGVSVRPRWPLAELPAA
Turning to B9, the “fold change of barcode share” value under setting [1] turned out to be 0.393 ± 0.078 and the “fold change of barcode share” value under setting [2] amounted to 0.00787 ± 0.0026.

B10: tsaD M265P (protein)
chain: MRVLGIETSCDETGIAIYDDEKGLLANQLYSQVKLHADYGGVVPELASRDHVRKTVPLIQAALKESGLTAKDIDAVAYTAGPGLVGALLVGATVGRSLAFAWDVPAIPVHHMEGHLLAPMLEDNPPEFPFVALLVSGGHTQLISVTGIGQYELLGESIDDAAGEAFDKTAKLLGLDYPGGPLLSKMAAQGTAGRFVFPRPMTDRPGLDFSFSGLKTFAANTIRDNGTDDQTRADIARAFEDAVVDTLMIKCKRALDQTGFKRLVPAGGVSANRTLRAKLAEMMKKRRGEVFYARPEFCTDNGAMIAYAGMVRFKAGATADLGVSVRPRWPLAELPAA
Take B10: the “fold change of barcode share” value was 0.249 ± 0.088 under setting [1] and 0.00308 ± 0.002 under setting [2].

B11: carA L209A (protein)
chain: MIKSALLVLEDGTQFHGRAIGATGSAVGEVVFNTSMTGYQEILTDPSYSRQIVTLTYPHIGNVGTNDADEESSQVHAQGLVIRDLPLIASNFRNTEDLSSYLKRHNIVAIADIDTRKLTRLLREKGAQNGCIIAGDNPDAALALEKARAFPGLNGMDLAKEVTTAEAYSWTQGSWTLTGGLPEAKKEDELPFHVVAYDFGAKRNILRMAVDRGCRLTIVPAQTSAEDVLKMNPDGIFLSNGPGDPAPCDYAITAIQKFLETDIPVFGICLGHQLLALASGAKTVKMKFGHHGGNHPVKDVEKNVVMITAQNHGFAVDEATLPANLRVTHKSLFDGTLQGIHRTDKPAFSFQGHPEASPGPHDAAPLFDHFIELIEQYRKTAK
With B11, the “fold change of barcode share” value was determined as 0.564 ± 0.08 under setting [1] and 0.008 ± 0.0011 under setting [2].

B12: carA L209Q (protein)
chain: MIKSALLVLEDGTQFHGRAIGATGSAVGEVVFNTSMTGYQEILTDPSYSRQIVTLTYPHIGNVGTNDADEESSQVHAQGLVIRDLPLIASNFRNTEDLSSYLKRHNIVAIADIDTRKLTRLLREKGAQNGCIIAGDNPDAALALEKARAFPGLNGMDLAKEVTTAEAYSWTQGSWTLTGGLPEAKKEDELPFHVVAYDFGAKRNILRMQVDRGCRLTIVPAQTSAEDVLKMNPDGIFLSNGPGDPAPCDYAITAIQKFLETDIPVFGICLGHQLLALASGAKTVKMKFGHHGGNHPVKDVEKNVVMITAQNHGFAVDEATLPANLRVTHKSLFDGTLQGIHRTDKPAFSFQGHPEASPGPHDAAPLFDHFIELIEQYRKTAK
As to B12, the “fold change of barcode share” value is 0.368 ± 0.071 under setting [1] and less than 0.00732 under setting [2].

B13: carA L209W (protein)
chain: MIKSALLVLEDGTQFHGRAIGATGSAVGEVVFNTSMTGYQEILTDPSYSRQIVTLTYPHIGNVGTNDADEESSQVHAQGLVIRDLPLIASNFRNTEDLSSYLKRHNIVAIADIDTRKLTRLLREKGAQNGCIIAGDNPDAALALEKARAFPGLNGMDLAKEVTTAEAYSWTQGSWTLTGGLPEAKKEDELPFHVVAYDFGAKRNILRMWVDRGCRLTIVPAQTSAEDVLKMNPDGIFLSNGPGDPAPCDYAITAIQKFLETDIPVFGICLGHQLLALASGAKTVKMKFGHHGGNHPVKDVEKNVVMITAQNHGFAVDEATLPANLRVTHKSLFDGTLQGIHRTDKPAFSFQGHPEASPGPHDAAPLFDHFIELIEQYRKTAK
With B13, the “fold change of barcode share” value is, setting by setting: under setting [1], 0.426 ± 0.12; under setting [2], 0.0223 ± 0.0075.
